Source: PubChem BioAssay AID488969 (Vanderbilt High Throughput Screening Facility, 2010)
Over roughly 110,000 compounds, “z-score” has its median near -0.1; the highest 2% begin near 2. Some of the results follow.

biological target: Metabotropic glutamate receptor 8 (Rattus norvegicus) (UniProt P70579); test: rat mGluR8 modulators via GIRK flux, primary screen, cell-based, thallium flux, HTS (AID 488969); conditions: HEK293 rat mGluR8, GIRK (G protein-gated inwardly rectifying potassium channel) thallium flux, FluoZin2; at 10 µM; stronger effect = higher value; submaximal glutamate (EC20) added with thallium
Sequence of UniProt P70579 (P70579 whole entry, looked up): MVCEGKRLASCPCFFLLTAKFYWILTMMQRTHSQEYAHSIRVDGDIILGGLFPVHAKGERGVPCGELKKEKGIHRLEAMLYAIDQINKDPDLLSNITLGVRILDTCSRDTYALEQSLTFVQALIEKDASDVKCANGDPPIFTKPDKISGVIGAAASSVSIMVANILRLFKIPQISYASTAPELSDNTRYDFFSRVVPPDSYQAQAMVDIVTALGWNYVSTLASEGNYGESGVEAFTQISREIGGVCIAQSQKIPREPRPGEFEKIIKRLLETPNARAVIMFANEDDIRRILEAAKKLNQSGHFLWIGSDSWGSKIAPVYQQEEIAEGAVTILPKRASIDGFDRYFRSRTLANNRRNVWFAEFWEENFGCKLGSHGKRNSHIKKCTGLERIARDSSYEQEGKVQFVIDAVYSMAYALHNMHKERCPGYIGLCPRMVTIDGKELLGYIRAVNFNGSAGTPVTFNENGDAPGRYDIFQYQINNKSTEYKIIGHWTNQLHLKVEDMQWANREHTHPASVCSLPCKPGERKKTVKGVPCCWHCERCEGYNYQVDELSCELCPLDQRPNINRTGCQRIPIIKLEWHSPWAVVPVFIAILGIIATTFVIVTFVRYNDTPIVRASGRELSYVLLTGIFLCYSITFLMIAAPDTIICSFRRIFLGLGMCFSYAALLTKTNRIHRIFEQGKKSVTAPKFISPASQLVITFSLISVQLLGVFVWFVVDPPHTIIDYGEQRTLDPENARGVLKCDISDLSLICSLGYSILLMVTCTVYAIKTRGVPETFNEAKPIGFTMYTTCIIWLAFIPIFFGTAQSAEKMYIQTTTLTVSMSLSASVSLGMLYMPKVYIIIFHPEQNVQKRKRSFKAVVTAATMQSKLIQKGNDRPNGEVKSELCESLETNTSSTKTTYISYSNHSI

| Structure (SMILES) | z-score |
| --- | --- |
| Cc1c(NC(=O)CSc2nc3ccccc3[nH]2)c(=O)n(-c2ccccc2)n1C | -0.097 |
| O=C(N/N=C/C=C/c1ccccc1)c1cnccn1 | -0.12 |
| CCOC(=O)c1cccc(NC(=O)CSc2nnc(CNc3ccc(C)cc3)n2CC)c1 | -2.75 |
| Cc1csc(NC(=O)CSc2nc3sc(C)c(C)c3c(=O)[nH]2)n1 | 0.981 |
| O=C(Cn1c2ccccc2c(=O)c2cc([N+](=O)[O-])ccc21)Nc1ccccc1Cl | -0.278 |
| CSc1ccc(-c2nc(CSCC(=O)NCCCN3CCOCC3)c(C)o2)cc1 | -0.116 |
| Cc1ccc(NC2=C/C(=N\S(=O)(=O)c3cccs3)c3ccccc3C2=O)c(C)c1 | 0.224 |
| O=C(Nc1ccc2c(c1)OCCO2)NC12CC3CC(CC(C3)C1)C2 | 2.32 |
| c1ccc(SCc2nc3ccccc3[nH]2)nc1 | 0.0372 |
| Fc1ccc(CNc2nc3ccccc3n3nnnc23)cc1 | -0.251 |
| CCCOc1ccc(C2=NNC(c3cccs3)=Nc3ccc(OC)cc32)cc1 | -0.471 |
| O=C(Nc1ccc(N2CCCC2)cc1)c1cccc(-c2cc3ccccc3oc2=O)c1 | -0.0126 |
| O=C(C(Cc1ccccc1)n1cccc1)N1CCN(c2cccc(Cl)c2)CC1 (centres undefined) | -0.168 |
| COc1ccc(N2C(=O)C3CCCN3C2=O)cc1 (centres undefined) | 0.0142 |
| CC(=O)c1ccc(NC(=O)C2(c3ccccc3)CCOCC2)cc1 | -0.339 |
| CCC(CO)NC1=C([N+](=O)[O-])C(=O)CC(C)(C)C1 (centres undefined) | 0.08 |
| CN(C)S(=O)(=O)c1cccc(NC(=O)COc2nc3ccccc3nc2N2CCOCC2)c1 | -1.5 |
| CN(C)CCCNC(=S)N1CCn2c(nc3ccccc32)C1 | 0.00738 |
| CCn1c(=O)cc(OCC(=O)NCc2ccc(C)o2)c2ccccc21 | -0.239 |
| Cc1cnc(Sc2ncccc2[N+](=O)[O-])nc1 | -0.0644 |
| O=C(OCc1nc2scc(-c3ccccc3)c2c(=O)[nH]1)c1cc([N+](=O)[O-])ccc1Cl | -1.44 |
| Cc1c(Br)c([N+](=O)[O-])nn1CCCC(=O)N1CCN(c2ccccc2)CC1 | 0.334 |
| CCCCC(=O)Nc1ccc(NC(=O)c2cc(OC)c(OC)c(OC)c2)cn1 | -0.00813 |

| Structure (SMILES) | z-score |
| --- | --- |
| CC1=NN(C(=O)c2ccc(Cn3nc(C)cc3C)o2)C(O)(C(F)(F)F)C1 (centres undefined) | -0.123 |
| CC1CCCCC1NC(=O)c1ccc(S(=O)(=O)N2CCCC2)cc1 (centres undefined) | -0.425 |
| C=C(C)c1ccc(C(C)(C)NC(=O)N(Cc2ccccc2)Cc2ccco2)cc1 | -0.294 |
| O=C(CSc1nnnn1C1CCCCC1)NCc1ccccc1 | -0.0244 |
| Cc1ccc(-n2c(C)cc(-c3csc(N)n3)c2C)cc1 | -0.561 |
| CCOc1cccc2cc(C(=O)N3CCc4ccccc4C3)c(=O)oc12 | -0.741 |
| COCCCNC(=O)CCCC(=O)NCCCOC | 0.812 |
| C=CCNCCOCCOc1ccc(C)cc1Br | 0.527 |
| CC(C)N(C(=O)C1CC(=O)OC12CCCCC2)C(C)C (centres undefined) | -0.192 |
| Cc1ccc2cccc(Oc3ncnc4scc(-c5ccccc5)c34)c2n1 | -1.42 |
| Cc1cc(/C=C2\SC(=Nc3ccc(N4CCOCC4)cc3)N(C)C2=O)c(C)n1-c1cccnc1 | 0.202 |
| CCCCN(C)C(=O)CCC(=O)Nc1ccc2nc(N3CCOCC3)cc(C)c2c1 | -0.895 |
| CCn1c(=O)c2c(n3cnnc13)-c1ccccc1CC21CCCCC1 | -1.61 |
| O=C(O)c1cccc(-c2ccc(/C=N/NC(=O)c3cccnc3)o2)c1 | -0.216 |
| O=C1CC(C(=O)N(CC2CCCO2)C(C(=O)NC2CCCCC2)c2ccncc2)CS1 (centres undefined) | -0.648 |
| O=[N+]([O-])c1cc(/C=N/Nc2nc(N3CCOCC3)nc(N3CCOCC3)n2)ccc1Cl | -0.222 |
| O=C(/C=C/c1cccc([N+](=O)[O-])c1)Nc1cccc(NC(=O)c2ccco2)c1 | 0.186 |
| CC1=C(C)CC(C(=O)NCc2ccc3c(c2)OCO3)C(C(=O)O)C1 (centres undefined) | -0.335 |
| COc1ccccc1S(=O)Cc1ccc(C(=O)NCCc2ccc(Cl)cc2)o1 (centres undefined) | -0.45 |
| C/C(=C\c1ccccc1)C(=O)NC1CCSC1=O (centres undefined) | 0.028 |
| COc1ccc(C2=NOC(C(=O)NCCCN3CCOCC3)C2)cc1 (centres undefined) | 0.000804 |
| CCOC(=O)c1c(-c2ccccc2)cn2ccccc12 | -0.328 |
| COC(=O)c1[nH]c2cc(OC)ccc2c1NC(=O)CN1CCOCC1 | -0.504 |

| Structure (SMILES) | z-score |
| --- | --- |
| CC(C)n1c(=O)c2c(O)cc(=O)oc2c2ccccc21 | -0.109 |
| Cc1ccc(S(=O)(=O)N2CCN(C3CCC(c4ccccc4)CC3)CC2)cc1 (centres undefined) | -0.275 |
| CCc1ccc(-n2c(SCc3c(C)noc3C)nnc2-c2ccncc2)cc1 | 0.0471 |
| CCC(NC(=O)c1ccc([N+](=O)[O-])cc1[N+](=O)[O-])c1ccccc1 (centres undefined) | -0.136 |
| COc1cc(Br)cc(/C=N/c2ncn[nH]2)c1O | -2.37 |
| O=C(CCC(=O)N1CCN(C2CCCCC2)CC1)Nc1nnc(C(F)(F)F)s1 | -0.445 |
| CN1C(=O)c2ccc(C(=O)NC3CCCCC3)cc2C1=O | 0.22 |
| C/C(=N\NC(=O)C(NC(=O)c1ccccc1)C(C)C)c1ccccc1 (centres undefined) | -0.068 |
| COC(=O)[C@H](CCSC)NC(=O)NCCc1ccccc1F | -0.394 |
| O=C(NCC1OCCc2ccccc21)c1ccc(NC(=O)c2ccc(Cl)cc2Cl)cc1 (centres undefined) | -0.186 |
| O=C(CCc1ccccc1)N1CCN(CCO)CC1 | 0.156 |
| Cc1ccc(-n2nnnc2SCC(=O)Nc2ccccc2-c2ccccc2)cc1C | -0.158 |
| Cc1c(NC(=O)C(=O)/C=C(/O)c2ccccc2)c(=O)n(-c2ccccc2)n1C | -0.309 |
| COc1ccc2nc(C)cc(SCC(=O)N/N=C/c3c(OC)ccc4ccccc34)c2c1 | -1.47 |
| Cn1c(Cn2c(=O)sc3ccccc32)nnc1SCc1cccnc1 | -0.132 |
| N#Cc1ccc(-c2ccc(F)cc2)nc1Oc1ccccc1 | 0.187 |
| Cc1cccc(-n2nnc3cnn(C)c3c2=O)c1 | 0.893 |
| O=C1c2ccccc2C(=O)N1CC(O)Cn1nnc2ccccc21 (centres undefined) | 0.463 |
| Cc1ccc(O)c(-c2cc(-c3ccccc3F)[nH]n2)c1 | -0.351 |
| Cc1nn(-c2ccccc2)c2c1C(c1ccc(O)c(O)c1)N1C(=N2)C(Nc2ccccc2)=Nc2ccccc21 (centres undefined) | -0.165 |
| COc1ccccc1NC(=O)CN1CCN(CC(=O)Nc2ccc(Cl)c(C(F)(F)F)c2)CC1 | 0.46 |
| CCCCn1c(SCC(=O)N2CCCc3ccccc32)nc2c1c(=O)n(C)c(=O)n2C | -0.268 |
| COC(=O)c1ccc(S(=O)(=O)c2ccccc2)c(N)c1 | -0.0905 |
